This note sets out measurements from article PMC7819943, “Rice protein-binding microarrays: a tool to detect cis-acting elements near promoter regions in rice”.

The other results are listed elsewhere or left out.

This assay addresses T1, OsWOX13 (Oryza sativa, UniProt Q5QMM3 1-267).
T1 sequence: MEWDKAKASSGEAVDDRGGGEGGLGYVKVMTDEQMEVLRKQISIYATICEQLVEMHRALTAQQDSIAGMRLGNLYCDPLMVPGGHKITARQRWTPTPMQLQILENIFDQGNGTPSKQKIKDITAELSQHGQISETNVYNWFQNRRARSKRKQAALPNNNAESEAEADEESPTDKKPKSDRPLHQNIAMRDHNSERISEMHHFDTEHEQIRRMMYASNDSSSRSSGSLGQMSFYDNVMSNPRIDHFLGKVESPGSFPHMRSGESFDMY
Kind of assay: protein-binding microarray (RPBM); PBS, 2% BSA, 51.3 ng/ul salmon testes DNA, 50 uM zinc acetate, 200 nM TF, 25 C, 1 h; high values mean tight binding. Conditions: protein: recombinant; tags: N-terminal polyhistidine and DsRed monomer fusion (pET32a); label: CyDye5-dUTP incorporated in the synthesized complementary strand; 3' TTTTT single-stranded linker to array surface; dsDNA, one strand shown. In short, it runs like this: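 The binding signal for each feature is its fluorescence intensity in arbitrary units. An Axon 4000B scanner was used to read a custom Agilent array that had been made double-stranded with Cy5-dUTP primer extension, blocked with 2% BSA, incubated at 25 °C for 1 h with 200 nM protein in PBS, 2% BSA, salmon testes DNA and 50 µM zinc acetate, and washed. The protein was an N-terminal polyhistidine–DsRed transcription factor fusion from E. coli BL21-CodonPlus, purified on Ni–NTA.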
In the case of “ATGAACTGATAATCACCATTGGCTACTCCATCCAGTTCAACGGAGTCACCTAGTGCAG”, the binding signal is 12000 fluorescence intensity (a.u.).

“ATCTTAAATGGAAAATTGATGATTTTCTTCATAGTTGCATCGGAGTCACCTAGTGCAG”: the binding signal was 43400 fluorescence intensity (a.u.).

On to “CTTCATTTTAGAAAATTTAATTTCTAGGTTTAAACTTGGACGGAGTCACCTAGTGCAG”, for which the binding signal was 3560 fluorescence intensity (a.u.).

With “CCAAACAAATTTAATCAAAAGTCAGCATGATGCAGTCAAACGGAGTCACCTAGTGCAG”, the binding signal is 9340 fluorescence intensity (a.u.).

On to “AGTACAAAATTTAAAATTATGTTGCTATTTTATTATATTTCGGAGTCACCTAGTGCAG”, for which the binding signal is 3220 fluorescence intensity (a.u.).

With “CAAAATAAATTCATTTATCATCCATCATAAATATTCCAATCGGAGTCACCTAGTGCAG”, the binding signal was 4270 fluorescence intensity (a.u.).

Take “TGATGTCGTGATTGCAGAACTGTTTTCATATGCGTGTCAACGGAGTCACCTAGTGCAG”: the binding signal was 12300 fluorescence intensity (a.u.).

Consider “CAATGACTGAACCAGGACATATGTATACAGTCGCTTCTGTCGGAGTCACCTAGTGCAG”, for which the binding signal was 4700 fluorescence intensity (a.u.).

In the case of “CCTTTAATTATCAATTGTTTTACTTTGCTCTAATACACTTCGGAGTCACCTAGTGCAG”, the binding signal was 27600 fluorescence intensity (a.u.).

As for “TCCCTAATAGCTTATAAACTATATAAGAGATATGTACATTCGGAGTCACCTAGTGCAG”, the binding signal is 4310 fluorescence intensity (a.u.).

Turning to “CAATATTATAATTGTGTTAGATAGAGTATCACTATATTGCCGGAGTCACCTAGTGCAG”, the binding signal is 8920 fluorescence intensity (a.u.).

In the case of “TATCAAATTATCATACCTGATACCCGATACTAGGTATGGCCGGAGTCACCTAGTGCAG”, the binding signal is 5390 fluorescence intensity (a.u.).

For “GATGATGTGACTGAAATGTTGTGTGTTTATGACAGATTGACGGAGTCACCTAGTGCAG”, the binding signal is 17400 fluorescence intensity (a.u.).

As to “AAAATATATAATTAAACAGTTAATGACATACCTCTGGTTTCGGAGTCACCTAGTGCAG”, the binding signal was 19500 fluorescence intensity (a.u.).

Take “GTGCATAATTCGATTGAATGATACAGTGATACACAATCTGCGGAGTCACCTAGTGCAG”: the binding signal was 10200 fluorescence intensity (a.u.).

Take “GGTCCAATCAAACGGTCATTCTTGTGTTTTCCCTGTGTTTCGGAGTCACCTAGTGCAG”: the binding signal is 13000 fluorescence intensity (a.u.).

Consider “TGAGGTTGATCAATCAACATGGCGAGACCTAGCTCCGGTGCGGAGTCACCTAGTGCAG”, for which the binding signal was 13300 fluorescence intensity (a.u.).

“TAATAATATAATAGATTGTGTTCAACATTTAACCGTTATCCGGAGTCACCTAGTGCAG”: the binding signal is 15400 fluorescence intensity (a.u.).

For the sequence “CATGATCATCATGAATCAATCACCCGCCGTCCGTTGCATCCGGAGTCACCTAGTGCAG”, the binding signal is 31300 fluorescence intensity (a.u.).

Turning to “GATCAATAATTGAATATATTTTAATAATAAATTTGTCTTGCGGAGTCACCTAGTGCAG”, the binding signal is 55500 fluorescence intensity (a.u.).

As to “CTGAAGCAAATTAGTTAGAGGCCATCAAGCAATTTCGCAGCGGAGTCACCTAGTGCAG”, the binding signal is 3340 fluorescence intensity (a.u.).

For “CTAAATTCCCTATCAATTTCCACCACCTCTACCAAACAAGCGGAGTCACCTAGTGCAG”, the binding signal was 15700 fluorescence intensity (a.u.).

For “CTGCCCCTTGGTAATTAATAATGTTAATGACACTAGTAATCGGAGTCACCTAGTGCAG”, the binding signal is 3460 fluorescence intensity (a.u.).

Take “TATTTCAAATTTTAATTAATATCGTATTGGGTTCTTATATCGGAGTCACCTAGTGCAG”: the binding signal was 5540 fluorescence intensity (a.u.).

With “AACCAGTTATAACAAATAGAAAATTATTTGCTTAATGTGCCGGAGTCACCTAGTGCAG”, the binding signal is 5990 fluorescence intensity (a.u.).

Regarding “AATTGATATGGGATTTCGTGGTTGTACTTGCAGTGGGCGACGGAGTCACCTAGTGCAG”, the binding signal is 3820 fluorescence intensity (a.u.).

On to “TAAAGAAAACCAATCAATCGGAACGACTACTATACTCTCCCGGAGTCACCTAGTGCAG”, for which the binding signal is 7680 fluorescence intensity (a.u.).

“GATTAACTAACACTAATGGGTAATCTCCGGAGGCAAATCACGGAGTCACCTAGTGCAG”: the binding signal was 12400 fluorescence intensity (a.u.).

“ACCCTGAATTTTCGTGTCTAAATTTAACTGTCCGTCTTATCGGAGTCACCTAGTGCAG”: the binding signal is 10700 fluorescence intensity (a.u.).

On to “GATCGTAACTGGATTGATCGATCCACCATGCCTAATGGGTCGGAGTCACCTAGTGCAG”, for which the binding signal is 18700 fluorescence intensity (a.u.).

Regarding “AAATAATTGTTGCCATTGATTATTTTCCTTCTCAAAGTTACGGAGTCACCTAGTGCAG”, the binding signal was 18000 fluorescence intensity (a.u.).

Regarding “TTTGGGATTATTATAATCTAGATTATTGAGTCATATTACTCGGAGTCACCTAGTGCAG”, the binding signal was 10300 fluorescence intensity (a.u.).

Turning to “TTCAAATTATAATGTATACTCAAATAGAATCCGATCAAATCGGAGTCACCTAGTGCAG”, the binding signal was 3480 fluorescence intensity (a.u.).

Turning to “AAAAGTTTGACTAGAACGGCAAACCCGAGTAGAAGATTGACGGAGTCACCTAGTGCAG”, the binding signal is 6130 fluorescence intensity (a.u.).

On to “CATAGGATCAATTTAATATATTGACATGCCATTAGGCCATCGGAGTCACCTAGTGCAG”, for which the binding signal is 10600 fluorescence intensity (a.u.).

In the case of “TTAATAATCTGTTAGACATAATCATCTAGGGTATAACCTGCGGAGTCACCTAGTGCAG”, the binding signal is 14200 fluorescence intensity (a.u.).

As to “AGGACTGCAGTAACTACGGTAATTTCCTTGCTGACAGAAACGGAGTCACCTAGTGCAG”, the binding signal is 4760 fluorescence intensity (a.u.).

In the case of “TCTTATTAGCACATGATTAATTAAGTATTAACTATTATGACGGAGTCACCTAGTGCAG”, the binding signal was 20200 fluorescence intensity (a.u.).

On to “GAAATCAAATTAAATTTAATCGGCTAAAACCATATTTCATCGGAGTCACCTAGTGCAG”, for which the binding signal is 27000 fluorescence intensity (a.u.).

With “TAATAATTAAAATTTAATTAATTATATGCTAATTACTTTCCGGAGTCACCTAGTGCAG”, the binding signal is 24000 fluorescence intensity (a.u.).

Consider “ATGTAAATTTATTTGGGACTTACATATGTAATTTTGCGACCGGAGTCACCTAGTGCAG”, for which the binding signal is 24700 fluorescence intensity (a.u.).

In the case of “TTAACTTTGAATTTTCATGATTTATTATCTATTAATCTATCGGAGTCACCTAGTGCAG”, the binding signal is 3380 fluorescence intensity (a.u.).
